Measurements from patent US5798336A, “Antimicrobial peptides” (priority 1995, dated 1998).
Entries after “also recorded” stand apart in the source; their conditions may differ. Like-named read-outs stand apart in the source and are kept apart here. At least one peptide structure holds a part that was inferred or is arguable (an end, a ring closure or a residue). Where a SMILES comes first, the peptide text is derived from it.

Assays:
[1] = test system: Capnocytophaga sputigena ATCC 33123; experiment: In vitro bactericidal activity against C. sputigena; format: cell-based; conditions: 500 μg/ml peptide, 2 h, 1/100 strength HBSS (FIG. 7)
P. aeruginosa ATCC 27853 = conditions: for Log Kill (500 μg/ml) P. aeruginosa ATCC 27853: Table 6, crude peptides 500 μg/ml, about 10^7 CFU/ml, 1/100 strength HBSS
[2] = test system: A. acetinomycetemcomitans; experiment: Sensitivity of A. actinomycetemcomitans; format: cell-based, Actinobacillus actinomycetemcomitans
E. corrodens = experiment: Sensitivity of E. corrodens; format: cell-based, Eikenella corrodens
S. aureus strain 8325-4 [3] = test system: S. aureus strain 8325-4
[4] = test system: N. gonorrhoeae strain FA 102; conditions: for antibacterial activity against N. gonorrhoeae (in words): HBSS; for bactericidal capacity compared with antibiotics and defensin pool (in words): N. gonorrhoeae strain FA 102, each compound 5.0×10^-4 M, 30 min at 37° C., FIG. 5
[5] = test system: P. aeruginosa clinical isolates; format: cell-based, Pseudomonas aeruginosa; conditions: four independent clinical isolates
Description: P. aeruginosa ATCC 27853 (American Type Culture Collection, Rockville, Md.) is the strain used for testing antimicrobial activity against P. aeruginosa unless otherwise noted. It is a standardized strain for antibiotic-susceptibility testing of pseudomonads (see, e.g., Code of Federal Regulations, Title 21, Part 460, 1987). […] Agents effective against P. aeruginosa are needed in the art because multiple antibiotic resistance is quite common among clinical strains, and therefore resultant infections are often difficult to treat.
^1 3-5 × 10^7 CFU/ml of the designated strains were exposed
to 500 μg/ml of HPLCpurified peptides in 1/100 strength BHSS (10 mm
sodium phosphate, pH 7.0, 10 mM NaCl.

[6] = test system: N. gonorrhoeae strain WS1
S. aureus strain 8325-4 [7] = conditions: Table 7A; RP-HPLC-purified peptides 500 μg/ml
[8] = Table 2, peptide about 5×10^-4 M, S. aureus strain 8325-4, % survival ± SEM
[9] = Table 3, all peptides at 5×10^-4 M

CC[C@H](C)[C@H](N)C(=O)N[C@H](C(=O)NCC(=O)NCC(=O)N[C@@H](CCCNC(=N)N)C(=O)N[C@@H](CCC(=O)O)C(=O)N[C@@H](CO)C(=O)N[C@@H](CCCNC(=N)N)C(=O)N1CCC[C@H]1C(=O)N[C@@H](Cc1c[nH]cn1)C(=O)N[C@@H](CO)C(=O)N[C@@H](CCCNC(=N)N)C(=O)N1CCC[C@H]1C(=O)N[C@@H](Cc1ccc(O)cc1)C(=O)N[C@@H](CCSC)C(=O)N[C@@H](C)C(=O)N[C@@H](Cc1ccc(O)cc1)C(=O)N[C@@H](CC(C)C)C(=O)N[C@@H](CCC(N)=O)C(=O)N[C@H](C(=O)O)[C@@H](C)CC)[C@@H](C)CC [CG 1-20] (H-IIGGRESRPHSRPYMAYLQI-OH)
activity against C. sputigena ATCC 33123 (in words) [1]: effective | activity against C. sputigena ATCC 33123 (in words) ([1]; listed as IIGGRESRPHSRPYMAYLQI): sensitive | bactericidal activity against P. aeruginosa (in words) (P. aeruginosa ATCC 27853): highly active as crude peptides, but exhibited much lower activity when purified by RP-HPLC | bactericidal activity against P. aeruginosa (in words) (P. aeruginosa ATCC 27853; listed as SEQ ID NO:16): strong bactericidal activity

CC[C@H](C)[C@H](N)C(=O)N[C@H](C(=O)NCC(=O)NCC(=O)N[C@@H](CCCNC(=N)N)C(=O)O)[C@@H](C)CC [IIGGR] (H-IIGGR-OH)
sensitivity of A. acetinomycetemcomitans (in words) [2]: sensitive | sensitivity of E. corrodens (in words) (E. corrodens): more sensitive to IIGGR than to HPQYNQR | antibacterial activity against S. aureus (in words) (S. aureus strain 8325-4 [3]; about 5×10^-4 M peptide in HBSS): exhibited antibacterial activity | antibacterial activity against N. gonorrhoeae (in words) [4]: exhibited antibacterial activity | bactericidal capacity compared with antibiotics and defensin pool (in words) [4]: more active than tetracycline, streptomycin, kanamycin or the defensin pool | activity against C. sputigena ATCC 33123 (in words) [1]: effective; also recorded: sensitive

CSCC[C@H](NC(=O)[C@H](CO)NC(=O)[C@@H](NC(=O)[C@H](CCCNC(=N)N)NC(=O)CNC(=O)[C@H](Cc1c[nH]c2ccccc12)NC(=O)CNC(=O)[C@H](C)NC(=O)[C@@H](NC(=O)[C@@H](NC(=O)[C@H](CS)NC(=O)[C@H](CC(C)C)NC(=O)[C@@H](NC(=O)CNC(=O)[C@@H]1CCCN1C(=O)[C@@H](N)CCCNC(=N)N)[C@@H](C)O)[C@@H](C)O)C(C)C)C(C)C)C(=O)N[C@@H](CCCNC(=N)N)C(=O)N[C@@H](CCCNC(=N)N)C(=O)NCC(=O)N[C@H](C(=O)O)[C@@H](C)O [CG 117-136] (H-RPGTLCTVAGWGRVSMRRGT-OH)
killing of P. aeruginosa clinical strains (in words) [5]: highly effective bactericidal peptide | Log Kill (500 μg/ml) N. gonorrhoeae strain WSI ([6]; Table 7A, RP-HPLC-purified peptides 500 μg/ml): 4.20 log | Log Kill N. gonorrhoeae strain WS1 ([6]; Table 9, 500 μg/ml peptide, 5×10^6 CFU/ml): 4.20 log | Log Kill (500 μg/ml) P. aeruginosa ATCC 27853 (P. aeruginosa ATCC 27853): 5.88 log | Log Kill (500 μg/ml) S. aureus strain 8325-4 (S. aureus strain 8325-4 [7]): 5.34 log

CC[C@H](C)[C@H](NC(=O)[C@H](C)NC(=O)[C@H](CCCNC(=N)N)NC(=O)[C@H](CCCNC(=N)N)NC(=O)[C@H](C)NC(=O)[C@@H](NC(=O)[C@@H](NC(=O)[C@H](Cc1c[nH]cn1)NC(=O)[C@H](CCC(N)=O)NC(=O)[C@H](CCC(N)=O)NC(=O)[C@@H](NC(=O)[C@H](CC(N)=O)NC(=O)[C@H](CCC(=O)O)NC(=O)[C@H](CCCNC(=N)N)NC(=O)[C@@H](N)CCCNC(=N)N)[C@@H](C)O)[C@@H](C)CC)[C@@H](C)O)C(=O)N[C@@H](CCCNC(=N)N)C(=O)N[C@@H](Cc1c[nH]cn1)C(=O)N1CCC[C@H]1C(=O)N[C@@H](CCC(N)=O)C(=O)N[C@@H](Cc1ccc(O)cc1)C(=O)O [CG 61-80] (H-RRENTQQHITARRAIRHPQY-OH)
killing of P. aeruginosa clinical strains (in words) [5]: some variability in effectiveness | Log Kill (500 μg/ml) P. aeruginosa ATCC 27853 (P. aeruginosa ATCC 27853): 5.15 log

CC(C)C[C@H](NC(=O)CNC(=O)[C@H](CCC(=O)O)NC(=O)[C@H](CCC(N)=O)NC(=O)[C@H](C)NC(=O)[C@H](CCCNC(=N)N)NC(=O)[C@@H]1CCCN1C(=O)[C@H](CC(C)C)NC(=O)[C@H](C)NC(=O)[C@@H](NC(=O)[C@@H]1CCCN1C(=O)[C@H](CC(N)=O)NC(=O)[C@@H](NC(=O)[C@H](CC(N)=O)NC(=O)[C@H](CCCNC(=N)N)NC(=O)[C@H](CC(N)=O)NC(=O)[C@H](CCCNC(=N)N)NC(=O)[C@H](CCCNC(=N)N)NC(=O)[C@@H](NC(=O)[C@@H](N)CCCNC(=N)N)C(C)C)C(C)C)C(C)C)C(=O)O [CG 97-116] (H-RVRRNRNVNPVALPRAQEGL-OH)
bactericidal activity against P. aeruginosa (in words) (P. aeruginosa ATCC 27853): highly active as crude peptides, but exhibited much lower activity when purified by RP-HPLC

CC[C@H](C)[C@H](NC(=O)[C@H](CC(=O)O)NC(=O)[C@H](CC(N)=O)NC(=O)[C@H](CCC(N)=O)NC(=O)[C@@H](NC(=O)[C@@H](NC(=O)[C@H](CCCNC(=N)N)NC(=O)[C@H](CCC(N)=O)NC(=O)[C@H](CC(N)=O)NC(=O)[C@H](Cc1ccc(O)cc1)NC(=O)[C@H](CCC(N)=O)NC(=O)[C@@H]1CCCN1C(=O)[C@@H](N)Cc1c[nH]cn1)[C@@H](C)O)[C@@H](C)CC)C(=O)N[C@@H](CCSC)C(=O)N[C@@H](CC(C)C)C(=O)N[C@@H](CC(C)C)C(=O)N[C@@H](CCC(N)=O)C(=O)N[C@@H](CC(C)C)C(=O)N[C@@H](CO)C(=O)N[C@@H](CCCNC(=N)N)C(=O)O [CG 77-96] (H-HPQYNQRTIQNDIMLLQLSR-OH)
bactericidal activity against N. gonorrhoeae, Cat G 20-mer peptides (in words) [6]: not significantly bactericidal

C[C@H](N)C(=O)N1CCC[C@H]1C(=O)N[C@@H](CCC(N)=O)C(=O)N[C@@H](Cc1ccc(O)cc1)C(=O)N[C@@H](CC(N)=O)C(=O)N[C@@H](CCC(N)=O)C(=O)N[C@@H](CCCNC(=N)N)C(=O)O [APQYNQR] (H-APQYNQR-OH)
% Survival of S. aureus (S. aureus strain 8325-4 [3]; [8]): 98.5% | % Survival of S. aureus (S. aureus strain 8325-4 [3]; [9]): 98.5% | antibacterial activity against N. gonorrhoeae (in words) [4]: abolished its bactericidal activity

N=C(N)NCCC[C@H](NC(=O)[C@H](CCC(N)=O)NC(=O)[C@H](CC(N)=O)NC(=O)[C@H](Cc1ccc(O)cc1)NC(=O)[C@H](CCC(N)=O)NC(=O)[C@@H]1CCCN1C(=O)[C@@H](N)Cc1c[nH]cn1)C(=O)O [HPQYNQR] (H-HPQYNQR-OH)
sensitivity of A. acetinomycetemcomitans (in words) [2]: sensitive | sensitivity of E. corrodens (in words) (E. corrodens): more sensitive to IIGGR than to HPQYNQR | ED50 for S. aureus (S. aureus strain 8325-4 [3]; HBSS, optimal conditions): 119 µM | antibacterial action at increased ionic strength (in words) (S. aureus strain 8325-4 [3]; S. aureus, HBSS pH 7.5, 0.17-0.21M NaCl, FIG. 6B): retained antibacterial activity | % Survival of S. aureus (S. aureus strain 8325-4 [3]; [8]): 28.6% | % Survival of S. aureus (S. aureus strain 8325-4 [3]; [9]): 28.6% | Percent Survival (S. aureus strain 8325-4 [3]; Table 4, third position replacements, organism not given): 21.2% | % Survival of S. aureus (S. aureus strain 8325-4 [3]; Table 5, all peptides at 5×10^-4 M): 28.6% | antibacterial activity against N. gonorrhoeae (in words) [4]: exhibited antibacterial activity | bactericidal capacity compared with antibiotics and defensin pool (in words) [4]: more active than tetracycline, streptomycin, kanamycin or the defensin pool | activity against C. sputigena ATCC 33123 (in words) [1]: sensitive
